From PMC9911399, “Two distinct binding modes provide the RNA-binding protein RbFox with extraordinary sequence specificity”
Changes are numbered by the printed parent chain; changes in the protein carry UniProt numbers. Some of the results follow.

T1: RBFOX1 RRM (Homo sapiens, UniProt Q9NWB1 109-208)
T1 sequence: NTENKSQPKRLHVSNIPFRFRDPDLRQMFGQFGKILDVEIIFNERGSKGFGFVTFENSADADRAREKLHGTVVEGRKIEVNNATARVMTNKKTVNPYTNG

B1: AUUUUGG (DNA:RNA)
RNA: GGGAGACCGGAAUUCAGAUUGUCCAUUUUGGUUAAAUCCCGUCGUAGCCACCA
DNA 1: CAATCTGAATTCCGGTCTCCC
DNA 2: TGGTGGCTACGACGGGATT
B2: AUCCCCA (DNA:RNA)
RNA: B1 RNA with U27C, U28C, U29C, G30C, G31A
DNA 1: CAATCTGAATTCCGGTCTCCC
DNA 2: TGGTGGCTACGACGGGATT
B3: ACACAGC (DNA:RNA)
RNA: B1 RNA with U26C, U27A, U28C, U29A, G31C
DNA 1: CAATCTGAATTCCGGTCTCCC
DNA 2: TGGTGGCTACGACGGGATT
B4: CCUGUCG (DNA:RNA)
RNA: B1 RNA with A25C, U26C, U28G, G30C
DNA 1: CAATCTGAATTCCGGTCTCCC
DNA 2: TGGTGGCTACGACGGGATT
B5: GGUUCGU (DNA:RNA)
RNA: B1 RNA with A25G, U26G, U29C, G31U
DNA 1: CAATCTGAATTCCGGTCTCCC
DNA 2: TGGTGGCTACGACGGGATT
B6: UAUGUCU (DNA:RNA)
RNA: B1 RNA with A25U, U26A, U28G, G30C, G31U
DNA 1: CAATCTGAATTCCGGTCTCCC
DNA 2: TGGTGGCTACGACGGGATT
B7: CGUAAUG (DNA:RNA)
RNA: B1 RNA with A25C, U26G, U28A, U29A, G30U
DNA 1: CAATCTGAATTCCGGTCTCCC
DNA 2: TGGTGGCTACGACGGGATT
B8: UGAGCGU (DNA:RNA)
RNA: B1 RNA with A25U, U26G, U27A, U28G, U29C, G31U
DNA 1: CAATCTGAATTCCGGTCTCCC
DNA 2: TGGTGGCTACGACGGGATT
B9: CACGCAU (DNA:RNA)
RNA: GGGAGACCGGAAUUCAGAUUGUCCCACGCAUUUAAAUCCCGUCGUAGCCACCA
DNA 1: CAATCTGAATTCCGGTCTCCC
DNA 2: TGGTGGCTACGACGGGATT
B10: UUUUAUU (DNA:RNA)
RNA: B1 RNA with A25U, U29A, G30U, G31U
DNA 1: CAATCTGAATTCCGGTCTCCC
DNA 2: TGGTGGCTACGACGGGATT
B11: CGUGGCU (DNA:RNA)
RNA: B9 RNA with A26G, C27U, C29G, A30C
DNA 1: CAATCTGAATTCCGGTCTCCC
DNA 2: TGGTGGCTACGACGGGATT
B12: AUUAUAU (DNA:RNA)
RNA: B1 RNA with U28A, G30A, G31U
DNA 1: CAATCTGAATTCCGGTCTCCC
DNA 2: TGGTGGCTACGACGGGATT
B13: AGAGAAA (DNA:RNA)
RNA: B9 RNA with C25A, A26G, C27A, C29A, U31A
DNA 1: CAATCTGAATTCCGGTCTCCC
DNA 2: TGGTGGCTACGACGGGATT
B14: UUAUGAA (DNA:RNA)
RNA: B1 RNA with A25U, U27A, U29G, G30A, G31A
DNA 1: CAATCTGAATTCCGGTCTCCC
DNA 2: TGGTGGCTACGACGGGATT
B15: UGAACGC (DNA:RNA)
RNA: B1 RNA with A25U, U26G, U27A, U28A, U29C, G31C
DNA 1: CAATCTGAATTCCGGTCTCCC
DNA 2: TGGTGGCTACGACGGGATT
B16: AUCCGAU (DNA:RNA)
RNA: B9 RNA with C25A, A26U, G28C, C29G
DNA 1: CAATCTGAATTCCGGTCTCCC
DNA 2: TGGTGGCTACGACGGGATT
B17: ACACUUU (DNA:RNA)
RNA: B1 RNA with U26C, U27A, U28C, G30U, G31U
DNA 1: CAATCTGAATTCCGGTCTCCC
DNA 2: TGGTGGCTACGACGGGATT
B18: GUAGCUU (DNA:RNA)
RNA: B9 RNA with C25G, A26U, C27A, A30U
DNA 1: CAATCTGAATTCCGGTCTCCC
DNA 2: TGGTGGCTACGACGGGATT
B19: UGGUCAC (DNA:RNA)
RNA: B9 RNA with C25U, A26G, C27G, G28U, U31C
DNA 1: CAATCTGAATTCCGGTCTCCC
DNA 2: TGGTGGCTACGACGGGATT
B20: GCUUACG (DNA:RNA)
RNA: B1 RNA with A25G, U26C, U29A, G30C
DNA 1: CAATCTGAATTCCGGTCTCCC
DNA 2: TGGTGGCTACGACGGGATT
B21: ACGUAUU (DNA:RNA)
RNA: B1 RNA with U26C, U27G, U29A, G30U, G31U
DNA 1: CAATCTGAATTCCGGTCTCCC
DNA 2: TGGTGGCTACGACGGGATT
B22: GGGCGUU (DNA:RNA)
RNA: B9 RNA with C25G, A26G, C27G, G28C, C29G, A30U
DNA 1: CAATCTGAATTCCGGTCTCCC
DNA 2: TGGTGGCTACGACGGGATT
B23: CAUCGAG (DNA:RNA)
RNA: B9 RNA with C27U, G28C, C29G, U31G
DNA 1: CAATCTGAATTCCGGTCTCCC
DNA 2: TGGTGGCTACGACGGGATT
B24: CUAGCCU (DNA:RNA)
RNA: B9 RNA with A26U, C27A, A30C
DNA 1: CAATCTGAATTCCGGTCTCCC
DNA 2: TGGTGGCTACGACGGGATT
B25: GACAAGA (DNA:RNA)
RNA: B9 RNA with C25G, G28A, C29A, A30G, U31A
DNA 1: CAATCTGAATTCCGGTCTCCC
DNA 2: TGGTGGCTACGACGGGATT
B26: GCAGUUG (DNA:RNA)
RNA: B1 RNA with A25G, U26C, U27A, U28G, G30U
DNA 1: CAATCTGAATTCCGGTCTCCC
DNA 2: TGGTGGCTACGACGGGATT
B27: CGUGAUC (DNA:RNA)
RNA: B9 RNA with A26G, C27U, C29A, A30U, U31C
DNA 1: CAATCTGAATTCCGGTCTCCC
DNA 2: TGGTGGCTACGACGGGATT
B28: CAGGCUA (DNA:RNA)
RNA: B9 RNA with C27G, A30U, U31A
DNA 1: CAATCTGAATTCCGGTCTCCC
DNA 2: TGGTGGCTACGACGGGATT
B29: AGCUGAG (DNA:RNA)
RNA: B1 RNA with U26G, U27C, U29G, G30A
DNA 1: CAATCTGAATTCCGGTCTCCC
DNA 2: TGGTGGCTACGACGGGATT
B30: CCCGCUU (DNA:RNA)
RNA: B9 RNA with A26C, A30U
DNA 1: CAATCTGAATTCCGGTCTCCC
DNA 2: TGGTGGCTACGACGGGATT
B31: CCGUAGU (DNA:RNA)
RNA: B1 RNA with A25C, U26C, U27G, U29A, G31U
DNA 1: CAATCTGAATTCCGGTCTCCC
DNA 2: TGGTGGCTACGACGGGATT

molecular target: T1, RBFOX1 RRM; assay: EMSA; HiTS-Eq, 1 nM pool, 10 min; buffer printed only for the single-RNA assays: 10 mM Tris pH 7.5, 150 mM NaCl, 3.4 mM EDTA, 0.001% NP-40, 30 C; conditions: tags: His6 N-terminal (pET28a); label: 5' 32P
How it was run: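 Purified wild-type or mutant RbFox RRM at increasing concentrations was equilibrated with 1 nM of 5′-radiolabelled RNA carrying 7 randomized nucleotides for 10 min in 50 µL. Unbound RNA was separated by 8% native PAGE and sequenced. Relative association constants came from read-count changes of each RNA species compared with the control reaction, normalised to the cognate motif.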

Question: With B1 as the binder, how does the binding signal read?
Answer: 0.00906 KA relative to UGCAUGU

Question: How did the binding signal turn out when B2 was run?
Answer: 0.000607 KA relative to UGCAUGU

Question: How did the binding signal turn out when B3 was run?
Answer: 0.000341 KA relative to UGCAUGU

Question: With B4 as the binder, how does the binding signal read?
Answer: 0.0121 KA relative to UGCAUGU

Question: How did the binding signal turn out when B5 was run?
Answer: 0.0165 KA relative to UGCAUGU

Question: For B6, which binding signal is on record?
Answer: 0.0135 KA relative to UGCAUGU

Question: Which binding signal does the source give for B7 here?
Answer: 0.0127 KA relative to UGCAUGU

Question: Which binding signal does the source give for B8 here?
Answer: 0.0215 KA relative to UGCAUGU

Question: For B9, which binding signal is on record?
Answer: 0.00481 KA relative to UGCAUGU

Question: B10 was tested. Which binding signal did it give?
Answer: 0.00461 KA relative to UGCAUGU

Question: B11 was tested. Which binding signal did it give?
Answer: 0.0195 KA relative to UGCAUGU

Question: How did the binding signal turn out when B12 was run?
Answer: 0.000815 KA relative to UGCAUGU

Question: B13 was tested. Which binding signal did it give?
Answer: 0.00515 KA relative to UGCAUGU

Question: With B14 as the binder, how does the binding signal read?
Answer: 0.014 KA relative to UGCAUGU

Question: How did the binding signal turn out when B15 was run?
Answer: 0.016 KA relative to UGCAUGU

Question: How did the binding signal turn out when B16 was run?
Answer: 0.00393 KA relative to UGCAUGU

Question: How did the binding signal turn out when B17 was run?
Answer: 0.00141 KA relative to UGCAUGU

Question: How did the binding signal turn out when B18 was run?
Answer: 0.0122 KA relative to UGCAUGU

Question: Which binding signal does the source give for B19 here?
Answer: 0.0142 KA relative to UGCAUGU

Question: Which binding signal does the source give for B20 here?
Answer: 0.0122 KA relative to UGCAUGU

Question: How did the binding signal turn out when B21 was run?
Answer: 0.00231 KA relative to UGCAUGU

Question: For B22, which binding signal is on record?
Answer: 0.0253 KA relative to UGCAUGU

Question: For B23, which binding signal is on record?
Answer: 0.00984 KA relative to UGCAUGU

Question: B24 was tested. Which binding signal did it give?
Answer: 0.00821 KA relative to UGCAUGU

Question: B25 was tested. Which binding signal did it give?
Answer: 0.00664 KA relative to UGCAUGU

Question: How did the binding signal turn out when B26 was run?
Answer: 0.0127 KA relative to UGCAUGU

Question: For B27, which binding signal is on record?
Answer: 0.0175 KA relative to UGCAUGU

Question: Which binding signal does the source give for B28 here?
Answer: 0.0121 KA relative to UGCAUGU

Question: B29 was tested. Which binding signal did it give?
Answer: 0.0184 KA relative to UGCAUGU

Question: With B30 as the binder, how does the binding signal read?
Answer: 0.00454 KA relative to UGCAUGU

Question: With B31 as the binder, how does the binding signal read?
Answer: 0.00942 KA relative to UGCAUGU
